Measurements taken from publication PMC9372576.
These are yes or no findings as the source states them, for the method shown. In cells and extracts the contact can be indirect. Some binding calls cover weakened binding; strength is not graded here. Sequences can lack the tags named with a protein.

The chains behind the UniProt entries cited, without tags or fusion partners.
UniProt P24375: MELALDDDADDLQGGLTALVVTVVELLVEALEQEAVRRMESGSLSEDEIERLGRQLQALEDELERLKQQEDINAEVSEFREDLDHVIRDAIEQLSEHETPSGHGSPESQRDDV

Target: T1, GvpC fused to NGFP or CGFP (Halobacterium salinarum) (UniProt P24574)
T1 sequence: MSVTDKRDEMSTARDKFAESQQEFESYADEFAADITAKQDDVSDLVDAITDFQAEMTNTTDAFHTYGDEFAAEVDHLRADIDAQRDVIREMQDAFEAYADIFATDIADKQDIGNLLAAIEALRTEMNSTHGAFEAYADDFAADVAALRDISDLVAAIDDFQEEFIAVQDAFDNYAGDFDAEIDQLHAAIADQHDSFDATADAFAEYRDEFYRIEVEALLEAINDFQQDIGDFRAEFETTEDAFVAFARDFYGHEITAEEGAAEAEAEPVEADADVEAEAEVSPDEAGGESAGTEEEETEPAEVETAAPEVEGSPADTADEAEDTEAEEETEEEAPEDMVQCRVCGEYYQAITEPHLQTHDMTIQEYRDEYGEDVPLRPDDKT
Assay: split reporter; split-GFP (NGFP and CGFP of salt-stable mGFP2) in Hfx. volcanii transformants, 24 h 37 °C then 24 h 30 °C; relative fluorescence (rf) against the wild type; the highest of eight tag combinations is given

Substance: GvpK fused to NGFP or CGFP (from UniProt P24375 1-113)
- binding: binds
